We go through 115 sequences from the BET-seq Pho4 binding data (Le et al. 2018).

The list shows a part of the results. These are noisy estimates, calculated here from bound and input reads.

This assay deals with T1, Pho4 (S. cerevisiae) (UniProt P07270).
T1 sequence: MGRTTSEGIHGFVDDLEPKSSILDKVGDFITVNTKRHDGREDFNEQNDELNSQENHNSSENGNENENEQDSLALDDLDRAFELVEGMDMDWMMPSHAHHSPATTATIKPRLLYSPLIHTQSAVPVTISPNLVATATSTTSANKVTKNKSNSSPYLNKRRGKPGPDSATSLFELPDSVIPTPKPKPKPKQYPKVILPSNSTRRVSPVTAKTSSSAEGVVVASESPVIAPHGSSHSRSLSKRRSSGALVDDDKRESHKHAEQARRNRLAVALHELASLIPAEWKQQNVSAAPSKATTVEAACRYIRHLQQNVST
Briefly: relative binding free energy (BET-seq); higher = weaker binding. The settings on record: reference: library average.
With GATCACACGTGGTGTT, the “relative binding free energy” value is 0.02 kcal/mol.

In the case of TCAGTCACGTGTGGAG, the “relative binding free energy” value came out at 0.16 kcal/mol.

For GAGGGCACGTGGGTAG, the “relative binding free energy” value was -0.18 kcal/mol.

AGTCACACGTGGTTGG: the “relative binding free energy” value turned out to be 0.09 kcal/mol.

GGTCTCACGTGAGCGG: the “relative binding free energy” value came to 0.4 kcal/mol.

Regarding ATCGGCACGTGGACGT, the “relative binding free energy” value was -0.02 kcal/mol.

On to GTTCTCACGTGGATTG, for which the “relative binding free energy” value is 0.39 kcal/mol.

In the case of TATGGCACGTGGGACG, the “relative binding free energy” value was -0.27 kcal/mol.

As for GTTAGCACGTGGTTAC, the “relative binding free energy” value was -0.03 kcal/mol.

For TATTTCACGTGAGAGT, the “relative binding free energy” value worked out at 0.5 kcal/mol.

In the case of ATGTGCACGTGTGTGC, the “relative binding free energy” value is -0.01 kcal/mol.

For TTCCTCACGTGGGGTG, the “relative binding free energy” value is 0.08 kcal/mol.

Consider TATTTCACGTGGAGTC, for which the “relative binding free energy” value was found to be 0.26 kcal/mol.

Turning to TATTACACGTGTCGAT, the “relative binding free energy” value is 0.12 kcal/mol.

For ACGGTCACGTGTGTTC, the “relative binding free energy” value was determined as 0.2 kcal/mol.

In the case of ACTGTCACGTGTTTGA, the “relative binding free energy” value worked out at 0.16 kcal/mol.

Turning to CATTGCACGTGGAGGC, the “relative binding free energy” value was 0.16 kcal/mol.

Regarding GAGAGCACGTGTGATT, the “relative binding free energy” value turned out to be 0.07 kcal/mol.

In the case of TGAAGCACGTGGGTGG, the “relative binding free energy” value is -0.16 kcal/mol.

Regarding GTAGGCACGTGGCATT, the “relative binding free energy” value was -0.13 kcal/mol.

GATAGCACGTGGACGT: the “relative binding free energy” value amounted to 0.22 kcal/mol.

In the case of ATTAACACGTGGGTGG, the “relative binding free energy” value was -0.27 kcal/mol.

TTAGTCACGTGGTTTG: the “relative binding free energy” value is 0.04 kcal/mol.

As for ATGTGCACGTGTATTT, the “relative binding free energy” value came to 0 kcal/mol.

For TGGAACACGTGTGGCA, the “relative binding free energy” value worked out at 0.05 kcal/mol.

Regarding AATAACACGTGTAGGG, the “relative binding free energy” value was -0.07 kcal/mol.

With TCTATCACGTGTAGGG, the “relative binding free energy” value turned out to be 0.17 kcal/mol.

For the sequence GATTTCACGTGAGTTA, the “relative binding free energy” value was 0.49 kcal/mol.

As for GTTCACACGTGTATGG, the “relative binding free energy” value is 0.07 kcal/mol.

Regarding TGAGACACGTGTGGCA, the “relative binding free energy” value stood at 0.05 kcal/mol.

As for TATTTCACGTGAAGTC, the “relative binding free energy” value was 0.36 kcal/mol.

In the case of TGATTCACGTGTTCTT, the “relative binding free energy” value was 0.16 kcal/mol.

In the case of ATGAACACGTGGTTCG, the “relative binding free energy” value was -0.02 kcal/mol.

In the case of AGCGGCACGTGACGTG, the “relative binding free energy” value turned out to be 0.01 kcal/mol.

Consider GCGTCCACGTGGAGGG, for which the “relative binding free energy” value was 0.01 kcal/mol.

For TATTACACGTGTTATG, the “relative binding free energy” value was -0.01 kcal/mol.

Regarding TAAGGCACGTGATATT, the “relative binding free energy” value was -0.04 kcal/mol.

CGCGGCACGTGGGGGA: the “relative binding free energy” value is -0.23 kcal/mol.

Consider ATTGTCACGTGAGCTG, for which the “relative binding free energy” value amounted to 0.37 kcal/mol.

As for TGAGACACGTGCTTGG, the “relative binding free energy” value was 0.01 kcal/mol.

Turning to TGTTGCACGTGGGCGG, the “relative binding free energy” value is -0.21 kcal/mol.

Consider TTAGTCACGTGTCCGT, for which the “relative binding free energy” value worked out at 0 kcal/mol.

Turning to AAGTTCACGTGGGGTT, the “relative binding free energy” value worked out at 0.2 kcal/mol.

As for ATTATCACGTGGGTAT, the “relative binding free energy” value is 0.07 kcal/mol.

As to GGGGACACGTGTTGTC, the “relative binding free energy” value turned out to be 0.07 kcal/mol.

For the sequence CTGTGCACGTGGCGTA, the “relative binding free energy” value is -0.08 kcal/mol.

For the sequence ACTTACACGTGGGAGG, the “relative binding free energy” value came to 0.09 kcal/mol.

For TTGTCCACGTGGGCTT, the “relative binding free energy” value is -0.09 kcal/mol.

Consider CGAATCACGTGTTGGG, for which the “relative binding free energy” value was 0.1 kcal/mol.

As to TTCTGCACGTGTAGAG, the “relative binding free energy” value amounted to 0.05 kcal/mol.

Take GCAAGCACGTGTGAGG: the “relative binding free energy” value stood at 0.08 kcal/mol.

As to ATTAGCACGTGTGCAT, the “relative binding free energy” value was -0.1 kcal/mol.

Regarding GTAATCACGTGGTGGC, the “relative binding free energy” value amounted to 0.18 kcal/mol.

Regarding TGCGTCACGTGGTTCT, the “relative binding free energy” value stood at 0.05 kcal/mol.

Consider TCCGTCACGTGTTGGA, for which the “relative binding free energy” value is 0.16 kcal/mol.

Regarding GGGTACACGTGCTGGA, the “relative binding free energy” value is 0.16 kcal/mol.

As for TAAGTCACGTGATTAA, the “relative binding free energy” value is 0.18 kcal/mol.

TAGCGCACGTGTTTGA: the “relative binding free energy” value is -0.08 kcal/mol.

In the case of GGTTTCACGTGTGGAA, the “relative binding free energy” value amounted to 0.4 kcal/mol.

Consider TAGTGCACGTGGTCGC, for which the “relative binding free energy” value is -0.1 kcal/mol.

In the case of TGTTTCACGTGACGTA, the “relative binding free energy” value was 0.3 kcal/mol.

GATCGCACGTGGGAGG: the “relative binding free energy” value was -0.06 kcal/mol.

Take TCTAGCACGTGCTGTG: the “relative binding free energy” value was -0.02 kcal/mol.

GAGTACACGTGTGTTT: the “relative binding free energy” value is 0.05 kcal/mol.

Take TACATCACGTGGAGGT: the “relative binding free energy” value turned out to be 0.13 kcal/mol.

As to TGTAACACGTGTGAGG, the “relative binding free energy” value worked out at 0.05 kcal/mol.

As for AGTCTCACGTGTTTTA, the “relative binding free energy” value was found to be 0.13 kcal/mol.

GCAGGCACGTGAGGGA: the “relative binding free energy” value was determined as 0.07 kcal/mol.

As to GTGTTCACGTGAGTTT, the “relative binding free energy” value came to 0.27 kcal/mol.

GGCCACACGTGGTGTG: the “relative binding free energy” value is -0.11 kcal/mol.

GATTTCACGTGAGGGT: the “relative binding free energy” value stood at 0.42 kcal/mol.

As for TGTTTCACGTGGGAAA, the “relative binding free energy” value is 0.18 kcal/mol.

ATAGTCACGTGTTAGA: the “relative binding free energy” value was determined as 0.01 kcal/mol.

As for TTTACCACGTGGGATG, the “relative binding free energy” value is -0.05 kcal/mol.

Take GTAGACACGTGGATTG: the “relative binding free energy” value is -0.02 kcal/mol.

For TCGTTCACGTGGATTA, the “relative binding free energy” value was determined as 0.28 kcal/mol.

In the case of GGGAGCACGTGGTGCA, the “relative binding free energy” value was -0.1 kcal/mol.

With ATAGTCACGTGTGTCG, the “relative binding free energy” value is 0.07 kcal/mol.

As for TGAGGCACGTGATAAA, the “relative binding free energy” value was -0.04 kcal/mol.

Consider GCGTACACGTGGTGAG, for which the “relative binding free energy” value was 0.06 kcal/mol.

GTATACACGTGTGGTT: the “relative binding free energy” value turned out to be 0.06 kcal/mol.

Regarding GGTCGCACGTGGGTCA, the “relative binding free energy” value is -0.03 kcal/mol.

Turning to GATTTCACGTGTCGTT, the “relative binding free energy” value amounted to 0.43 kcal/mol.

TCTCACACGTGATGGG: the “relative binding free energy” value came out at 0.43 kcal/mol.

Regarding GCTCGCACGTGTTGGT, the “relative binding free energy” value was 0.09 kcal/mol.

ATCGGCACGTGTCGTG: the “relative binding free energy” value was -0.1 kcal/mol.

ATGGTCACGTGGGTGA: the “relative binding free energy” value amounted to 0 kcal/mol.

Regarding ATTATCACGTGGTACG, the “relative binding free energy” value was -0.02 kcal/mol.

As to TAAGGCACGTGGAGCA, the “relative binding free energy” value is -0.02 kcal/mol.

For CGTGGCACGTGGTCTG, the “relative binding free energy” value was -0.27 kcal/mol.

As for TGGACCACGTGAGAGG, the “relative binding free energy” value worked out at 0.27 kcal/mol.

Turning to GAAGGCACGTGAAGGC, the “relative binding free energy” value came out at 0.3 kcal/mol.

Consider CAATGCACGTGTGAGT, for which the “relative binding free energy” value came to 0.06 kcal/mol.

Regarding TAGAGCACGTGGTACT, the “relative binding free energy” value was -0.1 kcal/mol.

On to TCTTACACGTGATATT, for which the “relative binding free energy” value was determined as 0.19 kcal/mol.

Regarding CGGGTCACGTGATTTA, the “relative binding free energy” value came out at 0.39 kcal/mol.

In the case of GAGCACACGTGTTTGG, the “relative binding free energy” value came to 0.21 kcal/mol.

Take ATGGCCACGTGATAGT: the “relative binding free energy” value is 0.06 kcal/mol.

Take GGTGACACGTGAAAGT: the “relative binding free energy” value was found to be 0.25 kcal/mol.

Regarding TTGGGCACGTGTGCGA, the “relative binding free energy” value is -0.14 kcal/mol.

For AGGATCACGTGCATGG, the “relative binding free energy” value is 0.19 kcal/mol.

Take GTGTTCACGTGCGTCG: the “relative binding free energy” value was 0.17 kcal/mol.

In the case of TGGCGCACGTGTAATG, the “relative binding free energy” value is -0.06 kcal/mol.

CTTAGCACGTGTGATG: the “relative binding free energy” value is -0.06 kcal/mol.

As to TGGAGCACGTGTGGTA, the “relative binding free energy” value was -0.1 kcal/mol.

As to TGGTTCACGTGGATCG, the “relative binding free energy” value was determined as 0.28 kcal/mol.

AGGGGCACGTGTTGGA: the “relative binding free energy” value is -0.08 kcal/mol.

Regarding ATTTACACGTGAGTAT, the “relative binding free energy” value amounted to 0.32 kcal/mol.

In the case of GGTAGCACGTGTTATC, the “relative binding free energy” value is 0.09 kcal/mol.

As for CGTTGCACGTGGATAG, the “relative binding free energy” value is -0.01 kcal/mol.

With GTGCACACGTGAGCGG, the “relative binding free energy” value was 0.26 kcal/mol.

As for TTGTGCACGTGTAGGA, the “relative binding free energy” value is 0.05 kcal/mol.

On to GGGGGCACGTGGAAGC, for which the “relative binding free energy” value is -0.02 kcal/mol.

Consider AGGGCCACGTGTGTCT, for which the “relative binding free energy” value was -0.01 kcal/mol.

Consider TATAACACGTGATATG, for which the “relative binding free energy” value was found to be 0.12 kcal/mol.
